# In PubChem BioAssay (NCI):
#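 Values below derive from 48-hour exposures of cells grown in 96-well plates, with endpoints linearly interpolated between the two concentrations bracketing the appropriate inhibition level. The concentration for 50% growth inhibition is given as GI50. Definition used: TGI = concentration required for complete inhibition of growth.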
# Tested on: NCI-H322M lung
# Assay: NCI anticancer screen, dose series, 48 h
Compound,GI50 [µM],TGI [µM]
COc1ccc2[nH]cc(-c3nc(N)nnc3-c3cn(C)c4ncc(Br)cc34)c2c1,0.684,> 100
CC1=C(C(=O)Nc2ccccc2)C(c2ccc3ccccc3c2)n2c(nc3ccccc32)N1 (stereo not given),23.2,67.1
O=C(c1ccc(O)cc1)C1[C@H](c2ccc(Br)cc2)[C@@H](c2ccccc2)NC12C(=O)Nc1ccc(Br)cc12 (stereo not given in full),4.2,8.49
O=C(CNc1nc(-c2ccccc2)cs1)Nc1ccc(Br)cc1,1.48,2.81
Clc1ccc2c(N/N=C/c3c[nH]c4ccc(Br)cc34)ccnc2c1,1.57,2.92
